# From paper PMC10232262
# Target: HA-CaM (UniProt P0DP23)
# Assay: co-IP; co-immunoprecipitation with CaM in the presence of Ca2+
substance,measurement,value
"Myc-IQGAP1 (pCDNA3-Myc-IQGAP1) (a stretch of the chain, chain not printed) (natural protein; other documents disagree on this pair)","relative band density (in Ca2+, against Ca2+-free = 1.0) (relative to the first band)",0.65
